# The other results are listed elsewhere or left out.
# System: PfAP2-HC AP2 domain (GST-tagged)
# Test: gcPBM binding intensity (ln(normalized median fluorescence intensity)); higher = stronger DNA binding
# Summary of the method: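 GST-tagged P. falciparum DNA-binding domains produced in E. coli were incubated for 1 h on an Agilent 4 × 180k array of primer-extended double-stranded 36-bp intergenic genomic probes with negative controls. Binding intensity is the highest Masliner-normalised natural-log median intensity across replicate spots of either probe orientation, with bound protein detected by Alexa488 anti-GST antibody at 488 nm.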
row,Sequence,gcPBM binding intensity (ln)
1,ATTTATTTTTTACATTGTACATATTTATTCCTTTTA [XGTACX_site8028],9.95
2,TTATTTTCAAAATGTTGTACACACAAAAAAAAAAAA [XGTACX_site3151],9.67
3,TTTTTTTTTTTTTTTGCATGCAGGTTTTTACCCCTT [TGCATGCA_site381],9.53
4,TTTTTTTTCTTCAAGCGTACTTATTTGTAGAAAAAA [XGTACX_site1728],9.27
5,ATATGTGGAAATAGAGCACACATATATATAATATAT [CACACA_site8194],10.1
6,TATGTATATATATAAAGTACGCAAATTTATAATAAG [XGTACX_site8744],9.74
7,TTTTGTTTTAAAAGTACACACTTTTAATTAGATTTC [CACACA_site4788],9.62
8,AAAATACACAACATATATATATATATATATATATAT [XGTACX_negctrl_site21],9.62
9,TGATCAATGGATTTAACACACAAAAAAAAAAAAAAA [CACACA_site3845],9.36
10,TACATGAATAAACTTACACACACCCATGCATACATA [CACACA_site97],10.4
11,TGAAAAGGAAAATTTTGTACATATACATCAAGGATA [XGTACX_site656],9.45
12,ACTTTTTATTTTTTACTATATATATATATATATATG [TGCATGCA_negctrl_site463],10.1
13,AAAAAAAAGAATTTACGTACTTATTATTTATATTTT [XGTACX_site5701],9.67
14,ACTAACATATATTCAACACACATATACCTTCAACCC [CACACA_site3011],10.2
15,TATATATATATATACACACACACATATATATATATA [CACACA_site774],9.96
16,CCCATTTAATATTGAGTGCATTTAAATAAATGTATT,9.53
17,TTTTACAAAGTATGATGTACAAGTATATATAAATAT [XGTACX_site2072],9.57
18,TCCCTTAAAATGATATGTACATAAAAATAAAAAAAA [XGTACX_site836],9.43
19,AACATAAGTAAGAATACATGCGGAAATTATATAGAA [TGCATGCA_site112],9.81
20,TATAAATTTAAAATGACACACACTAAAGTTATTTAA [CACACA_site6700],9.86
21,TAAATATTATAAATGATACACACTTAAAATACTCAC [CACACA_site2710],9.83
22,TTAAAAGAAAATAACACACACAAAAAAAAAAAAAAA [CACACA_site2117],9.79
23,TATATATTTGTTCACACACACACAAAAAAAAAAAAA [CACACA_site2475],10.3

row,Sequence,gcPBM binding intensity (ln)
1,TAAGGACTAATATTTGAACACACATATAATATATAC [CACACA_site9325],9.74
2,CATATATATATATATATATATATATTTATTTATTTA [TGCATGCA_negctrl_site165],9.51
3,GTCATCAAGTATTAAGTGCATTAAAAATAAAATATA,9.47
4,AGTTTAATATAAAATACACACTACTCTTATAAATAT [CACACA_site6803],9.65
5,GAAATAATAAATTAAAAATCGTTTATAACATTTAAC [CACACA_negctrl_site425],9.57
6,ATTTTCTTTCTATGCACACGCACGTATTTGCACCCA [CACACA_site3350],9.95
7,CTTTTTTTTTGATGTTGTACATATATATTATATAAT [XGTACX_site1321],9.76
8,GTATATAATATTAGTGCACACACAAAAATGTACTAA [CACACA_site8112],10
9,TGGGAGCACAGACACACACACACACCCATATATATA [CACACA_site335],10.5
10,TACAAAATAAAAATAATTCTTTCAAAAAATAATAAA [XGTACX_negctrl_site368],9.44
11,TGCACATTTATGTAACGTACAAAATATAATATGTTA [XGTACX_site8255],9.5
12,TCCTTATATTGGCACACACACACAATAAAATGAAAA [CACACA_site4715],10.7
13,GGTTGCTTCAGTGAATGTACATAGTGGTAAACAAGC [XGTACX_site166],9.59
14,GTATAAAAGTAATGTAGTACTTATATATTTTTATTT [XGTACX_site8975],9.56
15,AGTAATATAATATAAGCACACGTGTATTTATTTAGT [CACACA_site4246],10.1
16,TGCTATATTATTATCGCACACCGTTGATTCTAAATA [CACACA_site1207],9.72
17,CATTTATTTATATACACACACACAAAAAAAAAAAAA [CACACA_site7279],10
18,ATAAGTGTATAAAAATGTACGTGTATAAAAATATGT [XGTACX_site8235],9.89
19,AAAAAAAAAAGAAACACACACATATATATATATAAT [CACACA_site5052],10.1
20,TATATATATTCTTTAAAACACACGTAAAGAAGAATT [CACACA_site2718],9.63
21,ATATATGTTATTATTTGTACACACACATATATATCC [XGTACX_site7657],10.1
22,GAAAATTTATTTTTGGTGCATGTATTTATTTATTTT,9.71
